For 25 compounds, growth rescue (activation) results are on record in PubChem BioAssay AID1347073 (National Center for Advancing Translational Sciences (NCATS), 2019).

Hit rate of the full screen: of about 45,000 compounds, about 200 (0.44%) were called active. Inconclusive results (about 7%) are left out. Calls come from the whole dose curve; as a rule, active = well fitted activation curve with a large enough effect; inconclusive = small, poorly fitted or top-dose-only effect; inactive = no such curve, though single readings can be large or run the other way. The list shows a part of the results.

The nature of the assay: qHTS of TDP-43 Inhibitors: NCGC Sytravon Library Screen. Note: 0% is about no effect; nearly all actives have a fitted effect of over 55% in size. As to conditions: yeast TDP-43 toxicity rescue, BacTiter-Glo growth, 24 h; at 46.1 µM (top of the series). Summed up: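 TDP-43-expressing yeast, pregrown in raffinose, seeded at OD600 0.02 in galactose medium with compound for 24 hr at 30 deg C. Growth read by BacTiter-Glo luminescence, so rescue of toxicity appears as activation.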
For orientation: qHTS replaces the single test concentration by a dilution series.
For the compound `Cn1c(O)c(/C=C2\N=c3ccccc3=C2CCNC(=S)NC2CC2)c(=O)n(C)c1=O`, the growth rescue (activation) was inactive: -9.76%.

`O=C(Cc1ccccc1)N1CCN(Cc2ccccn2)CC1`: the growth rescue (activation) is inactive: 27.4%.

As to `CCN(CC)C(=O)c1ccc(NC(=O)COc2ccc([N+](=O)[O-])cc2Cl)cc1`, the growth rescue (activation) is inactive: 2.08%.

On to `COc1ccccc1-n1c(O)c(C=NCCCn2ccnc2)c(=O)[nH]c1=O`, for which the growth rescue (activation) was inactive: -3.33%.

With `CN(C)c1ccc(/C=C2/C(=O)NC(=O)N(Cc3ccco3)C2=O)cc1`, the growth rescue (activation) is inactive: 13.8%.

With `Cc1cccc(N2C(=O)NC(=O)/C(=C\c3cnc(-c4ccccc4)nc3)C2=O)c1`, the growth rescue (activation) is inactive: 27.3%.

Turning to `Cc1ccc2c(c1)N(C(C)C(=O)N1CCC3(CC1)OCCO3)C(=O)CO2` (stereo not given), the growth rescue (activation) is inactive: 5.95%.

In the case of `O=C1/C(=C\c2cc3c(cc2Br)OCO3)N2CCC1CC2`, the growth rescue (activation) is inactive: 12.6%.

Take `CCCN1CCC2(CC1)NC(CO)(CO)CO2`: the growth rescue (activation) is inactive: 3.67%.

Turning to `Cc1ccc(C2N3CCCN23)cc1` (stereo not given), the growth rescue (activation) is inactive: 4.5%.

In the case of `CNS(=O)(=O)c1ccc(N=Cc2c(O)n(-c3ccc(C)cc3)c(=O)[nH]c2=O)cc1`, the growth rescue (activation) was inactive: -16.8%.

For the compound `COP(=O)(NS(=O)(=O)c1ccccc1)OC`, the growth rescue (activation) was inactive: -0.45%.

Consider `COc1ccc(-n2c(O)c(/C=C3\C=Nc4ccc(Br)cc43)c(=O)[nH]c2=O)c(OC)c1`, for which the growth rescue (activation) was inactive: 16.7%.

For the compound `Cn1c(O)c(C=NCCN2CCOCC2)c(=O)[nH]c1=S`, the growth rescue (activation) is inactive: 5.4%.

`C/C(=N\N1CCN(C)CC1)c1c(O)n(Cc2ccccc2)c(=O)[nH]c1=O`: the growth rescue (activation) is inactive: -5.36%.

As for `O=C(O)C(Cc1cnc[nH]1)NS(=O)(=O)c1ccc(Cl)cc1` (stereo not given), the growth rescue (activation) is inactive: 5.09%.

With `Cc1ccc(NC(=O)Cn2cc(C(=O)c3ccccc3)c3ccccc32)c(C)c1`, the growth rescue (activation) was inactive: 5.44%.

For the compound `FC(F)(F)c1ccccc1NC1=NCCCS1`, the growth rescue (activation) is inactive: 8.12%.

Consider `Cc1cc(=O)[nH]c(CCl)n1`, for which the growth rescue (activation) is inactive: -6.53%.

On to `CN(C)C1(c2nnnn2CCOC(=O)Nc2ccc(Cl)cc2)CCCCC1`, for which the growth rescue (activation) is inactive: 9.2%.

With `CCC(=O)c1ccc(OCC(=O)N2CCN(CC(=O)Nc3ccccc3C(F)(F)F)CC2)cc1`, the growth rescue (activation) was inactive: 3.13%.

For `CC1(C)OC(c2ccccc2)=C/C(=C/C=C2C(=O)NC(=S)NC2=O)O1`, the growth rescue (activation) is inactive: -16.5%.

For the compound `CC(=O)C1C2c3ccccc3OC1(C)N=c1s/c(=C/c3cn(C)nc3C)c(=O)n12` (stereo not given), the growth rescue (activation) was inactive: 20.4%.

As to `Cc1cc(C)nc(NS(=O)(=O)c2ccc(N=Cc3c(O)n(C)c(=O)n(C)c3=O)cc2)n1`, the growth rescue (activation) is inactive: -7.57%.

Turning to `C[C@]12CCC3C(CC[C@H]4C[C@@H](O)CC[C@]34C)C1CC[C@@H]2N` (stereo not given in full), the growth rescue (activation) was inactive: -25.6%.
